{"source": "the supplement of paper PMC8728848", "binders": {"B1": {"name": "DC-ASGPR Long (Homo sapiens) (protein)", "chain": "MTRTYENFQYLENKVKVQGFKNGPLPLQSLLQRLRSGPCHLLLSLGLGLLLLVIICVVGFQNSKFQRDLVTLRTDFSNFTSNTVAEIQALTSQGSSLEETIASLKAEVEGFKQERQAGVSELQEHTTQKAHLGHCPHCPSVCVPVHSEMLLRVQQLVQDLKKLTCQVATLNNNASTEGTCCPVNWVEHQDSCYWFSHSGMSWAEAEKYCQLKNAHLVVINSREEQNFVQKYLGSAYTWMGLSDPEGAWKWVDGTDYATGFQNWKPGQPDDWQGHGLGGGEDCAHFHPDGGWNDDVCQRPYHWVCEAGLGQTSQESH"}}, "test_in_all_cases": "glycan array binding signal (z-score within array); higher = stronger binding", "details_in_all_cases": "glycan notation: IUPAC condensed, linker removed", "key": {"[1]": {"molecular_target": "Gal(b1-4)GlcNAc(b1-3)Gal(b1-4)GlcNAc(b1-3)[Gal(b1-4)GlcNAc(b1-3)Gal(b1-4)GlcNAc(b1-6)]GalNAc", "outline": "(§1)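 Arrays were curated from the Consortium for Functional Glycomics database, 3228 in total, and kept only where the protein sequence was available. Binding is expressed as a within-array Z-score. This score was averaged across arrays of the same protein sequence at different concentrations or buffers and across linkers, and negative values can be read as non-binding.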"}, "[2]": {"molecular_target": "Gal(b1-4)GlcNAc(b1-3)Gal(b1-4)GlcNAc(b1-6)[Gal(b1-3)]GalNAc", "outline": "as §1"}, "[3]": {"molecular_target": "Gal(b1-4)GlcNAc(b1-3)Gal(b1-4)[Fuc(a1-3)]GlcNAc(b1-3)Gal(b1-4)[Fuc(a1-3)]GlcNAc", "outline": "as §1"}, "[4]": {"molecular_target": "Gal(b1-4)GlcNAc(b1-3)GalNAc", "outline": "as §1"}, "[5]": {"molecular_target": "Gal(b1-4)GlcNAc(b1-3)[Fuc(a1-3)GlcNAc(b1-6)]Gal(b1-4)Glc", "outline": "as §1"}, "[6]": {"molecular_target": "Gal(b1-4)GlcNAc(b1-3)[Gal(b1-4)GlcNAc(b1-6)]Gal(b1-4)GlcNAc", "outline": "as §1"}, "[7]": {"molecular_target": "Gal(b1-4)GlcNAc(b1-3)[GlcNAc(b1-6)]Gal(b1-4)GlcNAc", "outline": "as §1"}, "[8]": {"molecular_target": "Gal(b1-4)GlcNAc(b1-6)Gal(b1-4)GlcNAc", "outline": "as §1"}, "[9]": {"molecular_target": "Gal(b1-4)GlcNAc(b1-6)GalNAc", "outline": "as §1"}, "[10]": {"molecular_target": "Gal(b1-4)GlcNAc(b1-6)[Gal(b1-3)]GalNAc", "outline": "as §1"}, "[11]": {"molecular_target": "Gal(b1-4)GlcNAc(b1-6)[Gal(b1-4)GlcNAc(b1-3)]GalNAc", "outline": "as §1"}, "Gal(b1-4)GlcNAc6P": {"molecular_target": "Gal(b1-4)GlcNAc6P", "outline": "as §1"}, "Gal(b1-6)Gal": {"molecular_target": "Gal(b1-6)Gal", "outline": "as §1"}, "Gal3S(b1-3)GalNAc": {"molecular_target": "Gal3S(b1-3)GalNAc", "outline": "as §1"}, "Gal3S(b1-3)GlcNAc": {"molecular_target": "Gal3S(b1-3)GlcNAc", "outline": "as §1"}, "[12]": {"molecular_target": "Gal3S(b1-3)[Fuc(a1-4)]GlcNAc", "outline": "as §1"}, "Gal3S(b1-4)Glc": {"molecular_target": "Gal3S(b1-4)Glc", "outline": "as §1"}, "Gal3S(b1-4)Glc6S": {"molecular_target": "Gal3S(b1-4)Glc6S", "outline": "as §1"}, "Gal3S(b1-4)GlcNAc": {"molecular_target": "Gal3S(b1-4)GlcNAc", "outline": "as §1"}, "[13]": {"molecular_target": "Gal3S(b1-4)[Fuc(a1-3)]Glc6S", "outline": "as §1"}, "[14]": {"molecular_target": "Gal3S(b1-4)[Fuc(a1-3)]GlcNAc", "outline": "as §1"}, "[15]": {"molecular_target": "Gal3S(b1-4)[Fuc(a1-3)]GlcNAc6S", "outline": "as §1"}, "Gal3S4S(b1-4)GlcNAc": {"molecular_target": "Gal3S4S(b1-4)GlcNAc", "outline": "as §1"}, "Gal3S6S(b1-4)GlcNAc": {"molecular_target": "Gal3S6S(b1-4)GlcNAc", "outline": "as §1"}, "Gal3S6S(b1-4)GlcNAc6S": {"molecular_target": "Gal3S6S(b1-4)GlcNAc6S", "outline": "as §1"}, "Gal4S(b1-4)GlcNAc": {"molecular_target": "Gal4S(b1-4)GlcNAc", "outline": "as §1"}, "Gal4S6S(b1-4)GlcNAc": {"molecular_target": "Gal4S6S(b1-4)GlcNAc", "outline": "as §1"}, "Gal6P(b1-4)GlcNAc": {"molecular_target": "Gal6P(b1-4)GlcNAc", "outline": "as §1"}, "Gal6S(b1-3)GlcNAc": {"molecular_target": "Gal6S(b1-3)GlcNAc", "outline": "as §1"}, "Gal6S(b1-3)GlcNAc6S": {"molecular_target": "Gal6S(b1-3)GlcNAc6S", "outline": "as §1"}, "Gal6S(b1-4)Glc": {"molecular_target": "Gal6S(b1-4)Glc", "outline": "as §1"}, "Gal6S(b1-4)Glc6S": {"molecular_target": "Gal6S(b1-4)Glc6S", "outline": "as §1"}, "Gal6S(b1-4)GlcNAc": {"molecular_target": "Gal6S(b1-4)GlcNAc", "outline": "as §1"}, "Gal6S(b1-4)GlcNAc6S": {"molecular_target": "Gal6S(b1-4)GlcNAc6S", "outline": "as §1"}, "GalNAc(a1-3)Gal": {"molecular_target": "GalNAc(a1-3)Gal", "outline": "as §1"}, "GalNAc(a1-3)GalNAc": {"molecular_target": "GalNAc(a1-3)GalNAc", "outline": "as §1"}, "[16]": {"molecular_target": "GalNAc(a1-3)GalNAc(b1-3)Gal(a1-4)Gal(b1-4)Glc", "outline": "as §1"}, "[17]": {"molecular_target": "GalNAc(a1-3)GalNAc(b1-3)Gal(a1-4)Gal(b1-4)GlcNAc", "outline": "as §1"}, "GalNAc(b1-3)Gal": {"molecular_target": "GalNAc(b1-3)Gal", "outline": "as §1"}, "[18]": {"molecular_target": "GalNAc(b1-3)Gal(a1-4)Gal(b1-4)GlcNAc", "outline": "as §1"}, "[19]": {"molecular_target": "GalNAc(b1-3)Gal(a1-4)Gal(b1-4)GlcNAc(b1-3)Gal(b1-4)Glc", "outline": "as §1"}, "[20]": {"molecular_target": "GalNAc(b1-3)Gal(a1-6)Gal(b1-4)Glc", "outline": "as §1"}, "GalNAc(b1-3)GalNAc": {"molecular_target": "GalNAc(b1-3)GalNAc", "outline": "as §1"}, "GalNAc(b1-3)GlcNAc": {"molecular_target": "GalNAc(b1-3)GlcNAc", "outline": "as §1"}, "GalNAc(b1-4)Gal(b1-4)Glc": {"molecular_target": "GalNAc(b1-4)Gal(b1-4)Glc", "outline": "as §1"}}, "note": "This is one part of the list.", "data": [{"binder": "B1", "values": [{"measurement": "glycan array binding signal (z-score)", "setting": "[1]", "value": -0.014}, {"measurement": "glycan array binding signal (z-score)", "setting": "[2]", "value": -0.334}, {"measurement": "glycan array binding signal (z-score)", "setting": "[3]", "value": -0.154}, {"measurement": "glycan array binding signal (z-score)", "setting": "[4]", "value": -0.428}, {"measurement": "glycan array binding signal (z-score)", "setting": "[5]", "value": -0.207}, {"measurement": "glycan array binding signal (z-score)", "setting": "[6]", "value": -0.435}, {"measurement": "glycan array binding signal (z-score)", "setting": "[7]", "value": -0.167}, {"measurement": "glycan array binding signal (z-score)", "setting": "[8]", "value": -0.534}, {"measurement": "glycan array binding signal (z-score)", "setting": "[9]", "value": 2.73}, {"measurement": "glycan array binding signal (z-score)", "setting": "[10]", "value": -0.345}, {"measurement": "glycan array binding signal (z-score)", "setting": "[11]", "value": -0.447}, {"measurement": "glycan array binding signal (z-score)", "setting": "Gal(b1-4)GlcNAc6P", "value": -0.388}, {"measurement": "glycan array binding signal (z-score)", "setting": "Gal(b1-6)Gal", "value": -0.624}, {"measurement": "glycan array binding signal (z-score)", "setting": "Gal3S(b1-3)GalNAc", "value": 0.08}, {"measurement": "glycan array binding signal (z-score)", "setting": "Gal3S(b1-3)GlcNAc", "value": -0.305}, {"measurement": "glycan array binding signal (z-score)", "setting": "[12]", "value": 0.258}, {"measurement": "glycan array binding signal (z-score)", "setting": "Gal3S(b1-4)Glc", "value": -0.075}, {"measurement": "glycan array binding signal (z-score)", "setting": "Gal3S(b1-4)Glc6S", "value": 0.284}, {"measurement": "glycan array binding signal (z-score)", "setting": "Gal3S(b1-4)GlcNAc", "value": -0.532}, {"measurement": "glycan array binding signal (z-score)", "setting": "[13]", "value": -0.501}, {"measurement": "glycan array binding signal (z-score)", "setting": "[14]", "value": -0.243}, {"measurement": "glycan array binding signal (z-score)", "setting": "[15]", "value": -0.173}, {"measurement": "glycan array binding signal (z-score)", "setting": "Gal3S4S(b1-4)GlcNAc", "value": -0.707}, {"measurement": "glycan array binding signal (z-score)", "setting": "Gal3S6S(b1-4)GlcNAc", "value": -0.427}, {"measurement": "glycan array binding signal (z-score)", "setting": "Gal3S6S(b1-4)GlcNAc6S", "value": -0.326}, {"measurement": "glycan array binding signal (z-score)", "setting": "Gal4S(b1-4)GlcNAc", "value": -0.608}, {"measurement": "glycan array binding signal (z-score)", "setting": "Gal4S6S(b1-4)GlcNAc", "value": -0.103}, {"measurement": "glycan array binding signal (z-score)", "setting": "Gal6P(b1-4)GlcNAc", "value": 0.095}, {"measurement": "glycan array binding signal (z-score)", "setting": "Gal6S(b1-3)GlcNAc", "value": -0.375}, {"measurement": "glycan array binding signal (z-score)", "setting": "Gal6S(b1-3)GlcNAc6S", "value": -0.016}, {"measurement": "glycan array binding signal (z-score)", "setting": "Gal6S(b1-4)Glc", "value": -0.219}, {"measurement": "glycan array binding signal (z-score)", "setting": "Gal6S(b1-4)Glc6S", "value": -0.262}, {"measurement": "glycan array binding signal (z-score)", "setting": "Gal6S(b1-4)GlcNAc", "value": -0.197}, {"measurement": "glycan array binding signal (z-score)", "setting": "Gal6S(b1-4)GlcNAc6S", "value": -0.022}, {"measurement": "glycan array binding signal (z-score)", "setting": "GalNAc(a1-3)Gal", "value": 0.841}, {"measurement": "glycan array binding signal (z-score)", "setting": "GalNAc(a1-3)GalNAc", "value": 0.678}, {"measurement": "glycan array binding signal (z-score)", "setting": "[16]", "value": -0.587}, {"measurement": "glycan array binding signal (z-score)", "setting": "[17]", "value": 0.521}, {"measurement": "glycan array binding signal (z-score)", "setting": "GalNAc(b1-3)Gal", "value": 1.95}, {"measurement": "glycan array binding signal (z-score)", "setting": "[18]", "value": 3.37}, {"measurement": "glycan array binding signal (z-score)", "setting": "[19]", "value": 2.3}, {"measurement": "glycan array binding signal (z-score)", "setting": "[20]", "value": 3.13}, {"measurement": "glycan array binding signal (z-score)", "setting": "GalNAc(b1-3)GalNAc", "value": 0.748}, {"measurement": "glycan array binding signal (z-score)", "setting": "GalNAc(b1-3)GlcNAc", "value": 1.54}, {"measurement": "glycan array binding signal (z-score)", "setting": "GalNAc(b1-4)Gal(b1-4)Glc", "value": 0.003}]}]}
